The values that follow come from PubChem BioAssay AID214 (DTP/NCI, 2004).

The test system of the assay is B6C3F1 mice, colon carcinoma 38 s.c., T/C. Briefly: NCI In Vivo Anticancer Drug Screen. Data for tumor model Colon Carcinoma 38 (subcutaneous) in B6C3F1 mice. Conditions: endpoint: median tumor weight (est.), higher = larger tumour. The method, then: The antitumor activity of compounds was measured in mice bearing transplantable tumors. Survival or tumor size were measured and the results are expressed as the measurement made in the treated group (T) divided by the measurement made in the vehicle treated control group (C). The tumor model used in this assay is Colon Carcinoma 38 (subcutaneous) in B6C3F1 mice

The mark [1] stands for this setting: dose: 50.0 mg/kg/injection, schedule: Q07DX002 (ip), vehicle: Klucel (hydroxypropylcellulose) (HPC).
Where [2] appears, read: dose: 25.0 mg/kg/injection, schedule: Q07DX002 (ip), vehicle: Klucel (hydroxypropylcellulose) (HPC).
The mark [3] stands for this setting: dose: 200.0 mg/kg/injection, schedule: Q07DX002 (ip), vehicle: Klucel (hydroxypropylcellulose) (HPC).

Records with an inconclusive call do not appear. The source holds more than one record for some entries. The other results are left out here. The source may hold further records. The values listed for one entry repeat one measurement in other runs, samples, wells, individuals or studies. Marks such as (2×) count equal records among those shown.

Regarding `C[n+]1c(-c2cccc(OCCOCCOc3cccc(-c4c5cc(N)ccc5c5ccc(N)cc5[n+]4C)c3)c2)c2cc(N)ccc2c2ccc(N)cc21`, the T/C (dose: 32.0 mg/kg/injection, schedule: Q07DX002 (ip), vehicle: water) was 36 % of control and 85 % of control.

Regarding `Cn1c(=O)[nH]c2nncnc2c1=O`, the T/C (dose: 25.0 mg/kg/injection, schedule: Q07DX002 (ip), vehicle: water) is 122 % of control and 158 % of control.

For `Nc1nc(-c2ccccc2)c(Br)c(=O)[nH]1`, the T/C reads like this: (dose: 800.0 mg/kg/injection, schedule: Q07DX002 (ip), vehicle: saline with Tween-80) 88 % of control and 170 % of control; (dose: 1600.0 mg/kg/injection, schedule: Q07DX002 (ip), vehicle: saline with Tween-80) 46 % of control and 87 % of control; (dose: 3200.0 mg/kg/injection, schedule: Q07DX002 (ip), vehicle: saline with Tween-80) 59 % of control and 114 % of control.

As for `CCN(CC)CCOC(=O)Cc1cccc2c(=O)cc(-c3ccccc3)oc12`, the T/C (dose: 15.82 mg/kg/injection, schedule: Q01DX001 (iv), vehicle: saline) was 56 % of control and 100 % of control; the T/C (dose: 15.82 mg/kg/injection, schedule: Q07DX002 (iv), vehicle: saline) is 36 % of control and 109 % of control; the T/C (dose: 21.09 mg/kg/injection, schedule: Q01DX001 (iv), vehicle: saline) is 74 % of control and 155 % of control; the T/C (dose: 28.13 mg/kg/injection, schedule: Q07DX002 (iv), vehicle: saline) was 69 % of control and 280 % of control; the T/C (dose: 37.5 mg/kg/injection, schedule: Q07DX002 (iv), vehicle: saline) is 63 % of control and 212 % of control; the T/C (dose: 112.5 mg/kg/injection, schedule: Q01DX001 (ip), vehicle: saline) was 34 % of control and 74 % of control. Also, the T/C is 54 % of control, 62 % of control, 87 % of control (dose: 112.5 mg/kg/injection, schedule: Q07DX002 (ip), vehicle: saline); 35 % of control and 88 % of control (dose: 150.0 mg/kg/injection, schedule: Q01DX001 (ip), vehicle: saline); 8 % of control, 10 % of control, 35 % of control (dose: 150.0 mg/kg/injection, schedule: Q07DX002 (ip), vehicle: saline).

As for `N[C@@H](Cc1ccc(N(CCCl)CCCl)cc1)C(=O)O`, the T/C by setting is: (dose: 2.5 mg/kg/injection, schedule: Q07DX002 (ip), vehicle: suspension in saline) 58 % of control, 59 % of control, 90 % of control; (dose: 5.0 mg/kg/injection, schedule: Q07DX002 (ip), vehicle: suspension in saline) 27 % of control, 89 % of control, 111 % of control; (dose: 10.0 mg/kg/injection, schedule: Q07DX002 (ip), vehicle: suspension in saline) 15 % of control and 50 % of control.

For `O=NN(CCF)C(=O)NC1CCCCC1`, the T/C under setting [1] is 2 % of control and 44 % of control.

On to `O=C(CCBr)N1CCN(C(=O)CCBr)CC1`, for which the T/C (dose: 160.0 mg/kg/injection, schedule: Q07DX002 (ip), vehicle: saline with Tween-80) is recorded as 12 % of control, 25 % of control, 40 % of control.

As for `O=C(CCCCCCC(=O)ON1C(=O)CCC1=O)ON1C(=O)CCC1=O`, the T/C reads like this: (dose: 50.0 mg/kg/injection, schedule: Q07DX002 (ip), vehicle: saline with Tween-80) 68 % of control and 120 % of control; (dose: 100.0 mg/kg/injection, schedule: Q07DX002 (ip), vehicle: saline with Tween-80) 44 % of control and 120 % of control.

Consider `C[C@@](O)(/C=C/[C@H]1CC=CC(=O)O1)[C@@H](C[C@@H](O)\C=C/C=C\C=C\CO)OP(=O)(O)O`, for which the T/C reads like this: (dose: 12.5 mg/kg/injection, schedule: Q07DX002 (ip), vehicle: other) 33 % of control and 120 % of control; (dose: 25.0 mg/kg/injection, schedule: Q07DX002 (ip), vehicle: other) 93 % of control and 150 % of control.

Regarding `NC(CCl)=NCC12CC3CC(CC(C3)C1)C2`, the T/C under setting [2] is 87 % of control and 124 % of control; the T/C under setting [1] is 114 % of control and 166 % of control.

Take `CO[C@@]12[C@H](COC(N)=O)C3=C(C(=O)C(C)=C(N)C3=O)N1C[C@@H]1N[C@@H]12`: the T/C is 21 % of control, 85 % of control, 107 % of control (dose: 1.0 mg/kg/injection, schedule: Q07DX002 (ip), vehicle: saline) and 39 % of control, 49 % of control, 68 % of control (dose: 2.0 mg/kg/injection, schedule: Q07DX002 (ip), vehicle: saline).

For the compound `CCC(C(=O)O)C(=O)O.[NH2-].[NH2-].[Pt+2]`, the T/C by setting is: (dose: 50.0 mg/kg/injection, schedule: Q07DX002 (ip), vehicle: saline) 41 % of control, 100 % of control, 102 % of control; (dose: 100.0 mg/kg/injection, schedule: Q07DX002 (ip), vehicle: saline) 22 % of control, 76 % of control, 78 % of control.

Consider `Cc1cc(Nc2ccc3c(c2)OCO3)c2cc3c(cc2n1)OCO3`, for which the T/C under setting [2] is 41 % of control and 88 % of control (2×); the T/C under setting [3] is 51 % of control and 123 % of control.

Consider `O=C(O)Cc1cccc2c(=O)cc(-c3ccccc3)oc12`, for which the T/C is, setting by setting: (dose: 200.0 mg/kg/injection, schedule: Q07DX002 (iv), vehicle: sodium bicarbonate) 7 % of control and 107 % of control; (dose: 267.0 mg/kg/injection, schedule: Q07DX002 (ip), vehicle: sodium bicarbonate) 43 % of control and 108 % of control; (dose: 356.0 mg/kg/injection, schedule: Q07DX002 (ip), vehicle: sodium bicarbonate) 4 % of control and 91 % of control.

For `COc1ccc2cc1Oc1ccc(cc1)C[C@H]1c3cc(c(OC)cc3CCN1C)Oc1c(OC)c(OC)cc3c1[C@H](C2)N(C)CC3`, the T/C (dose: 75.0 mg/kg/injection, schedule: Q07DX002 (ip), vehicle: saline with Tween-80) was 103 % of control and 159 % of control.

As for `Cc1ccc(NCCN(C)C)c2c(=O)c3cc(O)ccc3sc12`, under setting [3], the T/C is 32 % of control and 106 % of control.

For the compound `Cn1cc(C2NC(=O)c3ccccc3N2)c2ccccc21` (stereo not drawn), the T/C (dose: 800.0 mg/kg/injection, schedule: Q07DX002 (ip), vehicle: Klucel (hydroxypropylcellulose) (HPC)) is 101 % of control and 178 % of control.

`Nc1ccc2c(c1)CN1C(=O)c3ccccc3C1=N2`: where the note is “dose: 50.0 mg/kg/injection, schedule: Q07DX002 (ip), vehicle: other”, the T/C was 28 % of control and 89 % of control.
